Measurements reported in the supplement of paper PMC12632987.
Over roughly 4,500 sequences, “median log2 fold change of GCK-ALFA target abundance (FLAG IP / Myc IP barcode read proportion)” has its median near 0.078; the lowest 2% begin near -0.6. This is one part of the list.

B1: GBRAP_52_5925 (protein)
chain: SSERLREIAQKILDAALAGDEEGMKKLIEEVAKTLSDEEIKGVIRELAELVAELGPEHYDVFAKIADLLEDAVEKAGRDVELIQAAIAEGFGLLYDAEQA
B2: GBRAP_160_4426 (protein)
chain: SAKLEKAKKLITEIVEETAEMMEGESAEERIVLVRVAEGEILLELEELGLLTDEIEAVIDETFAAIAAHIAAHPDISQEELRALLKAAEEKIKKQLEKEA
B3: GBRAP_52_6144 (protein)
chain: MKEKIEAMAKEIVAALVAGDEEKARALLREAIKTFSLEELLELAKEAAKLIAKQGPDAEDLLARFMELWEEVGEEEGLEDETIDLIISTAAKTFVEEQAK
B4: GBRAP_125_2964 (protein)
chain: SEEEDLEALATLAKALGFDEDDVEEAVRLARKFGFKNTLIALFLAEGYDEVADLVEKLTEEEAKEVLKRLAEEIKKNPELTPEEVVKLAKELFEEVIAKK
B5: GBRAP_128_3311 (protein)
chain: IDEEIIKKAEELIKKIVEASVEEAAKLTEELIALMGEASEEEREIITELFKEALKELSAEKLEAVADVLRKNRPKLDPLAANEAAELEVEALNLAEEKEE
B6: GBRAP_128_3344 (protein)
chain: VDEAFLAEIRKLLEEMLEADEEEAKKLAEKIMEALVKASLEEVEAAAEIIRELLPKFSAEHLEILADELRKYRDKFTPEKQLVIADLEVELLNAAEEKEE
B7: GBRAP_11_2737 (protein)
chain: SKEKLKEIAKLAEEAAKLLEKLIKEGVDNEELRKEAEKALEKLEKAVKEYGDESLQKLAELAKEHFEEALKDPENAEQHLKEAAAALRVLEGQVLLDIEE
B8: GBRAP_150_3909 (protein)
chain: DLETLLTLAHTLIDILEAIIDGELELLPHALKIAKAILEEAKEIDEEIKKLAEELLKKLEEAKKLLEEGGKEEEIKKLLEEALKLAEEIEKLIEKKIKEK
B9: GBRAP_84_7006 (protein)
chain: EREEEIVKLTKEILEKGSIELKALLLTYLILKNENKAATLALNDLLKEDPEAAVEALDRATEAYEEGKEEEVEKELKEKAKKEGKEVAELVEKLIKLLEE
B10: GBRAP_160_4016 (protein)
chain: SAEIEKLKKEIEEEFEELKEDMKGLTPEERITLARGTAGLVLQLVESSPAVSDETEEEVAKILDAFVAEVEANADAPLAVHDKLIDDTLEKIKELLDKDE
B11: GBRAP_137_3641 (protein)
chain: MKVTIEKETIDDLVEITITVDDPEKAEEYKELLLDIAVEHGALAISAEIKEDGTLEVTIWVPKEKADALIDAIVKALQEKFNATVTVIDKDTGEVKTYKP
B12: GBRAP_80_6806 (protein)
chain: AEARLAAALAEIAALDPELAARVADIVARARALGVPTEVLAEYAEAIAALLRVDPARARELVDELAEELAEEAEAGDTENATATLRVYAGQALLAVEELE
B13: GBRAP_177_5011 (protein)
chain: SVVEQARAALDDPAALLALVRATDPSKLSKEEMLELIRIVAKTLAKHGYDEELVEALAELILAAMKHHGVSLGELLGIVIEEVDADTAERILDKVYELSE
B14: GBRAP_52_6206 (protein)
chain: MEERMRRAAEELLALVRAGDLEGAREYARRLARELSEEELELLGEQLVEIARRAAPEDLDAVFEAAEILSEVLEEEGYDEALADGLLNRVAAALYERELE
B15: GBRAP_128_3540 (protein)
chain: SLEEAKEYAEEVMEKIKNSTVEEAKKITKEFLEKLKSWTDEEVEAAVDVVIEKLPELTAEKLEALADTIEEERGKFTPEKQNLLAEVEVEALNEALEKEE
B16: GBRAP_122_2946 (protein)
chain: SETEERLERLVEEMVEALEAGDEEKLRELAEELVRLFDTISPEEARAAVERLIERVEGDEEKLERALRALLEAFYKNEPLTPAQEAAADVVAERFDELSE
B17: GBRAP_184_5021 (protein)
chain: RLLEEEIEVENVEEARAKLAELRARLAAEKADAVVLLDIKDPTPEILATIAEEVARIMAEGAAARLTVGIAAPLTEEQVDFLVERLSAAGARLVVALSEE
B18: GBRAP_83_6972 (protein)
chain: AEKIVVATTPDHIDSAIDAARDLATEEGYEVTVEIIGEPEEALAAARRAAEALKDIPNVSIVVAVERVRAEEAERLRREVAEIGERYGLEVRFEAELLPP
B19: GBRAP_52_5968 (protein)
chain: MRERAEELVREAIELERRGDEEGLRRLLREIAETWDDEELRLLAEALAEAAEEGDEEEAEIALRVAIRLADVLEEAGRDPRLAADLLGLVSTAAYKKELE

molecular target: GABARAP, O95166; test: median log2 fold change of GCK-ALFA target abundance (FLAG IP / Myc IP barcode read proportion) (log2 ratio); each designed protein is fused to an ALFA-tag nanobody in HEK293 cells to bring the named protein to FLAG-tagged glucokinase (GCK); Myc marks an untargeted standard; higher = target protein stabilised (more abundant); conditions: target protein: 3xFLAG-MCP-GCK-ALFA reporter; HEK293 landing pad (RPLP)
Summary of the method: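 An ALFA-nanobody-fused binder library was recombined into HEK293 landing-pad cells and induced with 2 μg mL^−1 doxycycline. Cells were transfected with a plasmid expressing a FLAG-tagged target and a Myc-tagged standard. After 48 h, lysates underwent anti-FLAG and anti-Myc immunoprecipitation, and circular RNA barcodes were reverse transcribed, amplified and sequenced. Target abundance is the per-binder median log2 ratio of FLAG to Myc barcode read proportions. Barcodes needed ≥10^−7 proportion in both replicates, binders ≥3 barcodes per replicate, and a 10^−6 pseudocount was added; the two replicates were pooled.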

GABARAP, O95166, sequence (O95166 whole entry, the tested form may be a part): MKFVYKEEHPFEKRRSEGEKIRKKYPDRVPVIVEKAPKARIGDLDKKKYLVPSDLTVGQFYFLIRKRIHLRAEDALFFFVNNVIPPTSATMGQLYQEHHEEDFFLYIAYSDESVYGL

Binder	median log2 fold change
B1	0.165
B2	-0.243
B3	0.125
B4	-0.94
B5	0.183
B6	0.28
B7	0.33
B8	0.294
B9	-0.666
B10	0.248
B11	-0.402
B12	0.0603
B13	0.194
B14	-0.486
B15	0.0544
B16	0.219
B17	0.0194
B18	0.0621
B19	-0.00502
